Source: ChEMBL document CHEMBL1201862, “PubChem BioAssay data set” (2004)

Tested on: NCI-H322M
Assay: NCI tumour cell line growth inhibition, 48 h

Q: How did the GI50 turn out when `Nc1ccccc1C(=O)NNC(=O)c1ccccc1N` was run?
A: inactive: > 100 µM

Q: `Cc1cc(NC(=O)NC(=O)c2ccccc2NC(=O)C(C)N)ccc1Oc1ncc(Br)cn1` (centres undefined) was tested. Which GI50 did it give?
A: active: 0.262 µM

Q: `N#C[C@H](C(=O)c1ccccc1F)c1nc2ccccc2[nH]1` was tested. Which GI50 did it give?
A: inactive: > 100 µM

Q: Which GI50 does the source give for `CC1=CC[C@@H]2[C@@H](CC[C@@]2(C)O)C(C)(C)[C@H]1CC[C@@H]1[C@@]2(C)CC[C@@H](O)C(C)(C)O[C@@H]2CC[C@]1(C)O` here?
A: inactive: 20.6 µM

Q: How did the GI50 turn out when `O=C(Nc1ccccc1F)c1cc2ccc(O)cc2o/c1=N\c1cccc(C(F)(F)F)c1` was run?
A: inactive: 3.12 µM

Q: How did the GI50 turn out when `CCN(C(C)=N)c1ccccc1` was run?
A: inactive: > 100 µM

Q: With `COC(=O)C1=C(C)NC2=C(C(=O)c3ccccc32)C1c1c[nH]nc1-c1ccccc1` (centres undefined) as the molecule, how does the GI50 read?
A: inactive: 72.6 µM

Q: `O=C1NC(c2ccccc2)C1N(Cc1ccccc1)Cc1ccccc1` (centres undefined) was tested. Which GI50 did it give?
A: inactive: > 100 µM

Q: With `CCOC(=O)c1cccc(/N=N/c2nc[nH]c2/C=C/C(=O)OC)c1` as the molecule, how does the GI50 read?
A: inactive: 45.7 µM

Q: `COc1ccc(S(=O)(=O)N2C(=O)CCC2C(=O)NN)cc1` (centres undefined) was tested. Which GI50 did it give?
A: inactive: > 100 µM

Q: With `O=C(NCCNCCNC(=O)c1cc(-c2ccccc2)nc2ccccc12)c1cc(-c2ccccc2)nc2ccccc12` as the molecule, how does the GI50 read?
A: inactive: 3.08 µM

Q: For `O=c1c2cccnc2[s+]([O-])n1Cc1ccccc1` (centres undefined), which GI50 is on record?
A: inactive: > 100 µM

Q: With `O=C(CC(=O)C1=CNc2ccccc2S1)C(=O)Nc1ccc(Cl)cc1` as the molecule, how does the GI50 read?
A: inactive: > 50 µM

Q: `Cc1cc(=O)oc2c(CNC(Cc3ccccc3)C(=O)O)c(O)ccc12` (centres undefined) was tested. Which GI50 did it give?
A: inactive: > 100 µM

Q: `CCCCc1c(OC)cc(O)c2c1C(=O)c1[nH]c(C(=O)O)c(O)c(=O)c1C2=O` was tested. Which GI50 did it give?
A: inactive: 30.4 µM

Q: With `COc1ccc(C(=O)NNC(=O)c2nsc3ccccc23)cc1` as the molecule, how does the GI50 read?
A: inactive: > 100 µM

Q: Which GI50 does the source give for `CC(=O)/C(=C\C1=CCCO1)C(=O)Nc1ccccc1C` here?
A: inactive: > 100 µM

Q: With `CN(C)CCCn1c(Cc2ccccc2)nc2cc(C(F)(F)F)ccc21` as the molecule, how does the GI50 read?
A: inactive: 25.7 µM

Q: For `Cc1cccc(C2=C/C(=C(\SS/C(C(=O)c3ccc(OCC(=O)O)c(Cl)c3Cl)=C3\C=C(c4cccc(C)c4)SS3)C(=O)c3ccc(OCC(=O)O)c(Cl)c3Cl)SS2)c1`, which GI50 is on record?
A: inactive: 43.6 µM

Q: Which GI50 does the source give for `Cc1cn([C@H]2[C@@H](CO)C[C@H]2O)c(=O)[nH]c1=O` here?
A: inactive: > 100 µM

Q: With `COC(=O)CCC12CCC(O1)c1ccccc12` (centres undefined) as the molecule, how does the GI50 read?
A: inactive: > 100 µM

Q: How did the GI50 turn out when `COC1C(=O)CCC2(CO2)C1(O)C1(C)OC1CCC(C)C` (centres undefined) was run?
A: inactive: 44.7 µM

Q: For `Nc1ncnc2ccc(Sc3ccc4ncnc(N)c4c3)cc12`, which GI50 is on record?
A: inactive: > 100 µM

Q: How did the GI50 turn out when `N#C/C(=C/c1cccnc1)C(=O)c1ccccc1` was run?
A: inactive: > 100 µM

Q: How did the GI50 turn out when `CC(=O)c1cccc(N2COC(C)(C)c3nc4ccccc4n3C2)c1` was run?
A: inactive: > 100 µM

Q: How did the GI50 turn out when `Cc1c(-c2nnc(-c3ccccc3)o2)c(=O)n(-c2ccccc2)n1C` was run?
A: inactive: > 100 µM

Q: How did the GI50 turn out when `Cc1ccc(NC(=O)CSC(N)=O)cc1C` was run?
A: inactive: > 100 µM

Q: For `Nc1cc2c3c(cccc3c1)NC2=O`, which GI50 is on record?
A: inactive: > 100 µM

Q: How did the GI50 turn out when `CN(C)CCNc1nc2ccccc2c2c1CCCC2` was run?
A: inactive: 26.7 µM

Q: Which GI50 does the source give for `COC(=O)C1CCC(=O)N1C(c1ccccc1)c1ccc(OC)c(OC)c1` (centres undefined) here?
A: inactive: > 100 µM

Q: With `CCC(CS(=O)(=O)O)[N+](=O)[O-]` (centres undefined) as the molecule, how does the GI50 read?
A: inactive: > 100 µM

Q: For `Cc1ccc(-n2c(C)n[nH]c2=O)cc1`, which GI50 is on record?
A: inactive: > 100 µM

Q: Which GI50 does the source give for `CC(N)Cc1ccc(Cl)c(Cl)c1` (centres undefined) here?
A: inactive: 39.2 µM

Q: Which GI50 does the source give for `O=S(=O)(O)c1cccc2cccc(/N=N/c3c(O)ccc4ccccc34)c12` here?
A: inactive: > 100 µM

Q: `COc1ccc(CCC2c3cc(OC)c(OC)cc3CCN2C)cc1OC` (centres undefined) was tested. Which GI50 did it give?
A: inactive: > 100 µM

Q: With `C=C1C(=O)C23CC1CCC2C12CO[C@H](O)[C@H]1C(C)(C)[C@H](OC(C)=O)C[C@H]2OC3=O` (some centres undefined) as the molecule, how does the GI50 read?
A: inactive: > 100 µM

Q: Which GI50 does the source give for `O=C1c2ccccc2-c2oc(=O)c3ccccc3c21` here?
A: inactive: > 100 µM

Q: How did the GI50 turn out when `c1ccc(C(c2ccccc2)c2ccccn2)cc1` was run?
A: inactive: 73.6 µM

Q: How did the GI50 turn out when `O=c1c2cc(I)ccc2nc(-c2cccs2)n1/N=C/c1ccccc1` was run?
A: inactive: > 100 µM

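Results reflect a 48-hour exposure of cells in 96-well plates to compound at five concentrations. GI50: concentration for 50% inhibition of growth.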 Active and inactive are the calls of the source. Rule as the data show it: active = GI50 up to about 1.1 µM and inactive = higher.
